The source of these data is publication PMC12820563.

This is one part of the list. The list includes weakly bound sequences.

For the assay, the target named is T1, MBP-FoxP3dN (UniProt Q99JB6).
T1 sequence: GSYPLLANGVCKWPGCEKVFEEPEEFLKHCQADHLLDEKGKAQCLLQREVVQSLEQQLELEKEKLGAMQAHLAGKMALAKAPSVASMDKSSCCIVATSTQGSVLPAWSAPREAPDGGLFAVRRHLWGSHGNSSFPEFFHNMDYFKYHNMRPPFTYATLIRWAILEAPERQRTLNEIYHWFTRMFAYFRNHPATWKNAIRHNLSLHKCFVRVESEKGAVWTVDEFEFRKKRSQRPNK
Briefly: PD-seq (MBP pull-down with sequencing). The following applies: 20 mM Tris-HCl pH 7.5, 100 mM NaCl, 1.5 mM MgCl2, 0.4 uM protein, 0.1 uM dsDNA library, 30 min, room temperature, amylose pull-down; high values mean tight binding; double strand, one strand shown.
Turning to “GATGATTGTTCTCCCAGCTGATGAATTGTCGTATTCGAGTAAACAAATTTTCCTAATCTTTCTGTTCAAGCGCCATCTAC”, the binding signal (RPM ratio (pull-down/input)) stood at 1.46.

Regarding “GATGATTGTTCTCCCAGCTGATGAATTAGCAAATTCGAGTAAACAAATTTTCCTAATCTTTCTGTTCAAGCGCCATCTAC”, the binding signal (RPM ratio (pull-down/input)) was found to be 0.351.

Regarding “GATGATTGTTCTCCCAGCTGATGAATTGCGTTAATCGAGTAAACAAATTTTCCTAATCTTTCTGTTCAAGCGCCATCTAC”, the binding signal (RPM ratio (pull-down/input)) turned out to be 0.843.

On to “GATGATTGTTCTCCCAGCTGATGAATTTAGCGTTTCGAGTAAACAAATTTTCCTAATCTTTCTGTTCAAGCGCCATCTAC”, for which the binding signal (RPM ratio (pull-down/input)) is 3.74.

Take “GATGATTGTTCTCCCAGCTGATGAATTACTCCTGTCGAGTAAACAAATTTTCCTAATCTTTCTGTTCAAGCGCCATCTAC”: the binding signal (RPM ratio (pull-down/input)) came out at 0.253.

For “GATGATTGTTCTCCCAGCTGATGAATTCTTCAGATCGAGTAAACAAATTTTCCTAATCTTTCTGTTCAAGCGCCATCTAC”, the binding signal (RPM ratio (pull-down/input)) was 0.168.

On to “GATGATTGTTCTCCCAGCTGATGAATTGAAGTAATCGAGTAAACAAATTTTCCTAATCTTTCTGTTCAAGCGCCATCTAC”, for which the binding signal (RPM ratio (pull-down/input)) worked out at 0.526.

On to “GATGATTGTTCTCCCAGCTGATGAATTGAGTGTCTCGAGTAAACAAATTTTCCTAATCTTTCTGTTCAAGCGCCATCTAC”, for which the binding signal (RPM ratio (pull-down/input)) stood at 1.33.

Consider “GATGATTGTTCTCCCAGCTGATGAATTTGCGCGATCGAGTAAACAAATTTTCCTAATCTTTCTGTTCAAGCGCCATCTAC”, for which the binding signal (RPM ratio (pull-down/input)) came to 0.914.

With “GATGATTGTTCTCCCAGCTGATGAATTCCATTGATCGAGTAAACAAATTTTCCTAATCTTTCTGTTCAAGCGCCATCTAC”, the binding signal (RPM ratio (pull-down/input)) came to 0.643.

For “GATGATTGTTCTCCCAGCTGATGAATTTCACCAGTCGAGTAAACAAATTTTCCTAATCTTTCTGTTCAAGCGCCATCTAC”, the binding signal (RPM ratio (pull-down/input)) turned out to be 0.198.

“GATGATTGTTCTCCCAGCTGATGAATTGTAGCAATCGAGTAAACAAATTTTCCTAATCTTTCTGTTCAAGCGCCATCTAC”: the binding signal (RPM ratio (pull-down/input)) stood at 2.57.

For “GATGATTGTTCTCCCAGCTGATGAATTTTGTGCTTCGAGTAAACAAATTTTCCTAATCTTTCTGTTCAAGCGCCATCTAC”, the binding signal (RPM ratio (pull-down/input)) worked out at 1.87.

As for “GATGATTGTTCTCCCAGCTGATGAATTAACACATTCGAGTAAACAAATTTTCCTAATCTTTCTGTTCAAGCGCCATCTAC”, the binding signal (RPM ratio (pull-down/input)) came to 0.638.

As for “GATGATTGTTCTCCCAGCTGATGAATTGACTCTGTCGAGTAAACAAATTTTCCTAATCTTTCTGTTCAAGCGCCATCTAC”, the binding signal (RPM ratio (pull-down/input)) is 0.34.

With “GATGATTGTTCTCCCAGCTGATGAATTGGTCGCCTCGAGTAAACAAATTTTCCTAATCTTTCTGTTCAAGCGCCATCTAC”, the binding signal (RPM ratio (pull-down/input)) was 0.604.

“GATGATTGTTCTCCCAGCTGATGAATTTCACGTATCGAGTAAACAAATTTTCCTAATCTTTCTGTTCAAGCGCCATCTAC”: the binding signal (RPM ratio (pull-down/input)) worked out at 0.546.

Turning to “GATGATTGTTCTCCCAGCTGATGAATTTGCATAGTCGAGTAAACAAATTTTCCTAATCTTTCTGTTCAAGCGCCATCTAC”, the binding signal (RPM ratio (pull-down/input)) was determined as 1.47.

For the sequence “GATGATTGTTCTCCCAGCTGATGAATTGGGGTTGTCGAGTAAACAAATTTTCCTAATCTTTCTGTTCAAGCGCCATCTAC”, the binding signal (RPM ratio (pull-down/input)) is 0.893.

For the sequence “GATGATTGTTCTCCCAGCTGATGAATTTGACCGATCGAGTAAACAAATTTTCCTAATCTTTCTGTTCAAGCGCCATCTAC”, the binding signal (RPM ratio (pull-down/input)) amounted to 0.228.

For “GATGATTGTTCTCCCAGCTGATGAATTGCATGCGTCGAGTAAACAAATTTTCCTAATCTTTCTGTTCAAGCGCCATCTAC”, the binding signal (RPM ratio (pull-down/input)) amounted to 2.23.

In the case of “GATGATTGTTCTCCCAGCTGATGAATTCACGATTTCGAGTAAACAAATTTTCCTAATCTTTCTGTTCAAGCGCCATCTAC”, the binding signal (RPM ratio (pull-down/input)) came out at 0.327.

Take “GATGATTGTTCTCCCAGCTGATGAATTCAACCGGTCGAGTAAACAAATTTTCCTAATCTTTCTGTTCAAGCGCCATCTAC”: the binding signal (RPM ratio (pull-down/input)) worked out at 0.231.

For the sequence “GATGATTGTTCTCCCAGCTGATGAATTTTCATCGTCGAGTAAACAAATTTTCCTAATCTTTCTGTTCAAGCGCCATCTAC”, the binding signal (RPM ratio (pull-down/input)) came to 0.339.

For the sequence “GATGATTGTTCTCCCAGCTGATGAATTCGTCGCATCGAGTAAACAAATTTTCCTAATCTTTCTGTTCAAGCGCCATCTAC”, the binding signal (RPM ratio (pull-down/input)) worked out at 1.1.

As to “GATGATTGTTCTCCCAGCTGATGAATTCAAGGGTTCGAGTAAACAAATTTTCCTAATCTTTCTGTTCAAGCGCCATCTAC”, the binding signal (RPM ratio (pull-down/input)) came to 0.277.

With “GATGATTGTTCTCCCAGCTGATGAATTATAAAACTCGAGTAAACAAATTTTCCTAATCTTTCTGTTCAAGCGCCATCTAC”, the binding signal (RPM ratio (pull-down/input)) worked out at 0.254.

With “GATGATTGTTCTCCCAGCTGATGAATTGACCCCGTCGAGTAAACAAATTTTCCTAATCTTTCTGTTCAAGCGCCATCTAC”, the binding signal (RPM ratio (pull-down/input)) came to 0.239.

With “GATGATTGTTCTCCCAGCTGATGAATTGTTGCTCTCGAGTAAACAAATTTTCCTAATCTTTCTGTTCAAGCGCCATCTAC”, the binding signal (RPM ratio (pull-down/input)) turned out to be 2.37.

Consider “GATGATTGTTCTCCCAGCTGATGAATTTTTCTTATCGAGTAAACAAATTTTCCTAATCTTTCTGTTCAAGCGCCATCTAC”, for which the binding signal (RPM ratio (pull-down/input)) was found to be 0.3.

As for “GATGATTGTTCTCCCAGCTGATGAATTGCCACACTCGAGTAAACAAATTTTCCTAATCTTTCTGTTCAAGCGCCATCTAC”, the binding signal (RPM ratio (pull-down/input)) was found to be 1.52.

“GATGATTGTTCTCCCAGCTGATGAATTGTGCAAGTCGAGTAAACAAATTTTCCTAATCTTTCTGTTCAAGCGCCATCTAC”: the binding signal (RPM ratio (pull-down/input)) came out at 3.75.
